Measured values: US11000038B2, “Pyridone compounds and agricultural and horticultural fungicides containing the same as active ingredients” (priority 2017, dated 2021)
Like-named read-outs stand apart in the source and are kept apart here.

What was measured:
[1] = tested on: rice blast fungi (Magnaporthe grisea); assay type: in vivo; conditions: for Test A control value class (rice blast): control value=100{1-(n/3)}; for Test A control value: rice blast
[2] = tested on: tomato late blight fungi (Phytophthora infestans); assay type: in vivo; conditions: for Test F control value class (tomato late blight): control value=100{1-(n/3)}; for Test F control value: tomato late blight
[3] = tested on: cucumber anthracnose fungi (Colletotrichum orbiculare); experiment: Test Example H: cucumber anthracnose, spray treatment of cucumber plants; conditions: for Test H control value class (cucumber anthracnose): 2.5 ml/pot, cucumber Sagami Hanjiro, 6 to 10 days from inoculation; for Test H control value: cucumber anthracnose, 6 to 10 days after inoculation
[4] = spray treatment of tomato plants

Compound: CCC(C)Cn1cc(Br)c(=O)c(Cl)c1-c1c(F)cc(OC)cc1F (stereo not drawn) [Compound 169]
- Test A control value class (rice blast) ([1]; spray treatment of rice plants): H (H shows the control value of more than 50%)
- Test F control value class (tomato late blight) [2, 4]: H (H shows the control value of more than 50%)
- Test H control value class (cucumber anthracnose) ([3]; 250 ppm spray): H (H shows the control value of more than 50%)

Compound: Cc1ccc(-c2c(Cl)c(=O)c(Br)cn2-c2ccccc2C)cc1 [Compound 409]
- Test A control value ([1]; spray treatment): L (L shows the control value of 50% or less)
- Test F control value ([2]; spray treatment): L (L shows the control value of 50% or less)
- Test H control value ([3]; 250 ppm spray): L (L shows the control value of 50% or less)

Compound: O=c1c(Cl)cn(-c2cc(F)ccc2Cl)c(-c2c(F)cccc2F)c1Cl [Compound 110]
- Test A control value class (rice blast) ([1]; spray treatment of rice plants): H (H shows the control value of more than 50%)
- Test F control value class (tomato late blight) [2, 4]: L (L shows the control value of 50% or less)
- Test H control value class (cucumber anthracnose) ([3]; 250 ppm spray): H (H shows the control value of more than 50%)

Compound: COc1cc(F)c(-c2c(Cl)c(=O)c(Br)cn2C2CCCCC2C)c(F)c1 (stereo not drawn) [Compound 171]
- Test A control value class (rice blast) ([1]; spray treatment of rice plants): L (L shows the control value of 50% or less)
- Test F control value class (tomato late blight) [2, 4]: L (L shows the control value of 50% or less)
- Test H control value class (cucumber anthracnose) ([3]; 250 ppm spray): L (L shows the control value of 50% or less)

Compound: Cc1c(-c2ccccc2)n(-c2ccc(Br)cc2Cl)cc(Br)c1=O [Compound 386]
- Test A control value ([1]; spray treatment): H (H shows the control value of more than 50%)
- Test F control value ([2]; spray treatment): L (L shows the control value of 50% or less)
- Test H control value ([3]; 250 ppm spray): H (H shows the control value of more than 50%)

Compound: COc1cc(F)c(-c2c(C)c(=O)c(C)cn2-c2cc(C)ccc2C)c(F)c1 [Compound 401]
- Test A control value ([1]; spray treatment): H (H shows the control value of more than 50%)
- Test F control value ([2]; spray treatment): L (L shows the control value of 50% or less)
- Test H control value ([3]; 250 ppm spray): H (H shows the control value of more than 50%)

Compound: O=c1c(Cl)cn(-c2ccon2)c(-c2c(F)cc(F)cc2F)c1Br [Compound 129]
- Test A control value class (rice blast) ([1]; spray treatment of rice plants): H (H shows the control value of more than 50%)
- Test F control value class (tomato late blight) [2, 4]: L (L shows the control value of 50% or less)
- Test H control value class (cucumber anthracnose) ([3]; 250 ppm spray): H (H shows the control value of more than 50%)

Compound: CCc1c(-c2c(F)cc(F)cc2F)n(-c2ccccc2C)cc(Cl)c1=O [Compound 375]
- Test A control value ([1]; spray treatment): H (H shows the control value of more than 50%)
- Test F control value ([2]; spray treatment): L (L shows the control value of 50% or less)
- Test H control value ([3]; 250 ppm spray): H (H shows the control value of more than 50%)

Compound: COc1cccc(F)c1-c1c(Cl)c(=O)c(Br)cn1-c1ccccc1 [Compound 611]
- Test A control value ([1]; spray treatment): L (L shows the control value of 50% or less)
- Test F control value ([2]; spray treatment): L (L shows the control value of 50% or less)
- Test H control value ([3]; 250 ppm spray): L (L shows the control value of 50% or less)

Compound: CCc1c(-c2c(F)cccc2F)n(-c2ccccc2C)cc(Br)c1=O [Compound 507]
- Test A control value ([1]; spray treatment): L (L shows the control value of 50% or less)
- Test F control value ([2]; spray treatment): L (L shows the control value of 50% or less)
- Test H control value ([3]; 250 ppm spray): L (L shows the control value of 50% or less)

Compound: O=c1c(Cl)cn(-c2ccccc2Cl)c(-c2c(F)cc(F)cc2F)c1Br [Compound 3]
- Test A control value class (rice blast) ([1]; spray treatment of rice plants): H (H shows the control value of more than 50%)
- Test F control value class (tomato late blight) [2, 4]: L (L shows the control value of 50% or less)
- Test H control value class (cucumber anthracnose) ([3]; 250 ppm spray): H (H shows the control value of more than 50%)

Compound: CCCc1ccccc1-n1cc(Br)c(=O)c(Br)c1-c1c(F)cc(F)cc1F [Compound 444]
- Test A control value ([1]; spray treatment): H (H shows the control value of more than 50%)
- Test F control value ([2]; spray treatment): L (L shows the control value of 50% or less)
- Test H control value ([3]; 250 ppm spray): H (H shows the control value of more than 50%)

Compound: COc1cc(F)c(-c2c(Br)c(=O)c(Cl)cn2-c2cccnc2OC)c(F)c1 [Compound 39]
- Test A control value class (rice blast) ([1]; spray treatment of rice plants): H (H shows the control value of more than 50%)
- Test F control value class (tomato late blight) [2, 4]: L (L shows the control value of 50% or less)
- Test H control value class (cucumber anthracnose) ([3]; 250 ppm spray): H (H shows the control value of more than 50%)

Compound: Cc1cccc(F)c1-n1cc(Br)c(=O)c(Br)c1-c1c(F)cc(F)cc1F [Compound 288]
- Test A control value ([1]; spray treatment of rice plants): H (H shows the control value of more than 50%)
- Test F control value [2, 4]: L (L shows the control value of 50% or less)
- Test H control value ([3]; 250 ppm spray (2.5 ml/pot)): L (L shows the control value of 50% or less)

Compound: Cc1c(F)cccc1-n1cc(Br)c(=O)c(C)c1-c1ccccc1 [Compound 412]
- Test A control value ([1]; spray treatment): L (L shows the control value of 50% or less)
- Test F control value ([2]; spray treatment): L (L shows the control value of 50% or less)
- Test H control value ([3]; 250 ppm spray): L (L shows the control value of 50% or less)

Compound: COc1cc(F)c(-c2c(C)c(=O)c(C)cn2-c2ccccc2Cl)c(F)c1 [Compound 442]
- Test A control value ([1]; spray treatment): H (H shows the control value of more than 50%)
- Test F control value ([2]; spray treatment): L (L shows the control value of 50% or less)
- Test H control value ([3]; 250 ppm spray): H (H shows the control value of more than 50%)

Compound: Cc1ccccc1-n1cc(Br)c(=O)c(Cl)c1-c1ccccc1 [Compound 378]
- Test A control value ([1]; spray treatment): L (L shows the control value of 50% or less)
- Test F control value ([2]; spray treatment): L (L shows the control value of 50% or less)
- Test H control value ([3]; 250 ppm spray): H (H shows the control value of more than 50%)

Compound: Cc1ccccc1-n1cc(C)c(=O)c(C)c1-c1ccccc1 [Compound 253]
- Test A control value ([1]; spray treatment of rice plants): L (L shows the control value of 50% or less)
- Test F control value [2, 4]: L (L shows the control value of 50% or less)
- Test H control value ([3]; 250 ppm spray (2.5 ml/pot)): L (L shows the control value of 50% or less)

Compound: O=c1c(Cl)cn(-c2ccccc2Br)c(-c2c(F)cc(F)cc2F)c1Br [Compound 46]
- Test A control value class (rice blast) ([1]; spray treatment of rice plants): H (H shows the control value of more than 50%)
- Test F control value class (tomato late blight) [2, 4]: L (L shows the control value of 50% or less)
- Test H control value class (cucumber anthracnose) ([3]; 250 ppm spray): H (H shows the control value of more than 50%)

Compound: COc1cc(-n2cc(Br)c(=O)c(Cl)c2-c2c(F)cccc2F)c(C)cc1Br [Compound 391]
- Test A control value ([1]; spray treatment): H (H shows the control value of more than 50%)
- Test F control value ([2]; spray treatment): L (L shows the control value of 50% or less)
- Test H control value ([3]; 250 ppm spray): H (H shows the control value of more than 50%)

Compound: COc1cc(F)c(-c2c(Br)c(=O)c(Cl)cn2-c2ccccc2F)c(F)c1 [Compound 33]
- Test A control value class (rice blast) ([1]; spray treatment of rice plants): H (H shows the control value of more than 50%)
- Test F control value class (tomato late blight) [2, 4]: L (L shows the control value of 50% or less)
- Test H control value class (cucumber anthracnose) ([3]; 250 ppm spray): H (H shows the control value of more than 50%)

Compound: O=c1c(Br)cn(-c2ccccc2F)c(-c2c(F)cc(F)cc2F)c1Br [Compound 22]
- Test A control value class (rice blast) ([1]; spray treatment of rice plants): H (H shows the control value of more than 50%)
- Test F control value class (tomato late blight) [2, 4]: L (L shows the control value of 50% or less)
- Test H control value class (cucumber anthracnose) ([3]; 250 ppm spray): H (H shows the control value of more than 50%)

Compound: Cc1cccc(F)c1-n1cc(Br)c(=O)c(Cl)c1-c1c(F)cc(F)cc1F [Compound 289]
- Test A control value ([1]; spray treatment of rice plants): H (H shows the control value of more than 50%)
- Test F control value [2, 4]: L (L shows the control value of 50% or less)
- Test H control value ([3]; 250 ppm spray (2.5 ml/pot)): H (H shows the control value of more than 50%)

Compound: CCc1c(-c2ccccc2)n(-c2cc(Cl)ccc2C)cc(C)c1=O [Compound 568]
- Test A control value ([1]; spray treatment): H (H shows the control value of more than 50%)
- Test F control value ([2]; spray treatment): L (L shows the control value of 50% or less)
- Test H control value ([3]; 250 ppm spray): H (H shows the control value of more than 50%)

Compound: CCOCOc1ccc(C)c(-n2cc(Br)c(=O)c(Cl)c2-c2c(F)cccc2F)c1 [Compound 432]
- Test A control value ([1]; spray treatment): H (H shows the control value of more than 50%)
- Test F control value ([2]; spray treatment): L (L shows the control value of 50% or less)
- Test H control value ([3]; 250 ppm spray): H (H shows the control value of more than 50%)

Compound: CCOc1cc(F)c(-c2c(C)c(=O)c(C)cn2-c2ccccc2C)c(F)c1 [Compound 176]
- Test A control value class (rice blast) ([1]; spray treatment of rice plants): H (H shows the control value of more than 50%)
- Test F control value class (tomato late blight) [2, 4]: L (L shows the control value of 50% or less)
- Test H control value class (cucumber anthracnose) ([3]; 250 ppm spray): H (H shows the control value of more than 50%)

Compound: COc1ccccc1-c1c(C)c(=O)c(C)cn1-c1ccccc1 [Compound 582]
- Test A control value ([1]; spray treatment): L (L shows the control value of 50% or less)
- Test F control value ([2]; spray treatment): L (L shows the control value of 50% or less)
- Test H control value ([3]; 250 ppm spray): L (L shows the control value of 50% or less)

Compound: Cc1c(Cl)cccc1-n1cc(C)c(=O)c(C)c1-c1ccccc1 [Compound 484]
- Test A control value ([1]; spray treatment): L (L shows the control value of 50% or less)
- Test F control value ([2]; spray treatment): L (L shows the control value of 50% or less)
- Test H control value ([3]; 250 ppm spray): H (H shows the control value of more than 50%)

Compound: CCc1c(-c2c(F)cccc2F)n(-c2cc(OC)ccc2C)cc(Br)c1=O [Compound 558]
- Test A control value ([1]; spray treatment): H (H shows the control value of more than 50%)
- Test F control value ([2]; spray treatment): H (H shows the control value of more than 50%)
- Test H control value ([3]; 250 ppm spray): H (H shows the control value of more than 50%)

Compound: Cc1cc(F)ccc1-c1c(C)c(=O)c(C)cn1-c1ccccc1 [Compound 571]
- Test A control value ([1]; spray treatment): H (H shows the control value of more than 50%)
- Test F control value ([2]; spray treatment): L (L shows the control value of 50% or less)
- Test H control value ([3]; 250 ppm spray): H (H shows the control value of more than 50%)

Compound: CCOC(=O)Cn1cc(Cl)c(=O)c(Br)c1-c1c(F)cc(F)cc1F [Compound 150]
- Test A control value class (rice blast) ([1]; spray treatment of rice plants): L (L shows the control value of 50% or less)
- Test F control value class (tomato late blight) [2, 4]: L (L shows the control value of 50% or less)
- Test H control value class (cucumber anthracnose) ([3]; 250 ppm spray): L (L shows the control value of 50% or less)

Compound: Cc1cn(-c2ccccc2)c(-c2ccccc2Cl)c(C)c1=O [Compound 575]
- Test A control value ([1]; spray treatment): H (H shows the control value of more than 50%)
- Test F control value ([2]; spray treatment): L (L shows the control value of 50% or less)
- Test H control value ([3]; 250 ppm spray): H (H shows the control value of more than 50%)
